This series has as its system Caco-2 cell monolayer. To be noted: for ER (efflux ratio, Papp(BL→AP)/Papp(AP→BL)) / Papp (AP→BL) / Papp (BL→AP): constituent of DS 100 μg/mL, 180 min; for Papp (AP→BL) / Papp (BL→AP): from UPLC-ESI-MS/MS peak areas.

From PMC11833358 (Food Chemistry: X, 2025) come the findings set out here.

With `O=C(O)CCc1ccc(O)cc1`, the “Differential metabolite TSA vs. DS” value (VIP ≥ 1, p < 0.05, fold change >2.0 or < 0.5, significantly accumulated in TSA) is on record as “upregulated”.

Consider `COc1cc(OC)c2c(=O)c(OC)c(-c3ccc(OC)c(OC)c3)oc2c1` [3,5,7,3′4′-Pentamethoxyflavone], for which the “ER (efflux ratio, Papp(BL→AP)/Papp(AP→BL))” value was determined as 5.26; the “Papp (AP→BL)” value is 5.19 10^−6 cm/s; the “Papp (BL→AP)” value is reported as 27.30 10^−6 cm/s.

For the compound `COc1c(O)cc(C2CC(=O)c3c(O)cc(O)cc3O2)cc1O[C@@H]1O[C@H](CO)[C@@H](O)[C@H](O)[C@H]1O` (some centres unmarked) [3′,5′,5,7-Tetrahydroxy-4′-methoxyflavanone-3′-O-glucoside], the “ER (efflux ratio, Papp(BL→AP)/Papp(AP→BL))” value is reported as 2.54; the “Papp (AP→BL)” value is reported as 5.84 10^−6 cm/s; the “Papp (BL→AP)” value is 14.85 10^−6 cm/s.

Turning to `COc1cc(-c2cc(=O)c3c(O[C@@H]4O[C@H](CO)[C@@H](O)[C@H](O)[C@H]4O)cc(O)cc3o2)cc(O)c1O` [3′-O-Methyltricetin-5-O-glucoside], the “ER (efflux ratio, Papp(BL→AP)/Papp(AP→BL))” value is on record as 2.31; the “Papp (AP→BL)” value is listed as 6.18 10^−6 cm/s; the “Papp (BL→AP)” value is listed as 14.27 10^−6 cm/s.

In the case of `O=C(O)C(O)Cc1ccc(O)cc1` (centres unmarked) [4-Hydroxyphenyllactic acid], the “ER (efflux ratio, Papp(BL→AP)/Papp(AP→BL))” value is recorded as 0.32; the “Papp (AP→BL)” value was 62.54 10^−6 cm/s; the “Papp (BL→AP)” value is 19.92 10^−6 cm/s.

For `COc1c(O)cc2oc(-c3ccc(O)cc3)c(O[C@@H]3O[C@H](CO)[C@@H](O)[C@H](O)[C@H]3O)c(=O)c2c1O` [6-Methoxykaempferol-3-O-glucoside], the “ER (efflux ratio, Papp(BL→AP)/Papp(AP→BL))” value was found to be 2.40; the “Papp (AP→BL)” value is listed as 5.96 10^−6 cm/s; the “Papp (BL→AP)” value was 14.28 10^−6 cm/s.

As for `COc1cc(O)cc([C@H]2OC[C@H](Cc3ccc(O)c(OC)c3)[C@@H]2CO)c1` [(7′S,8R,8′R)-3,5′-Dimethoxy-3′,4,9′-trihydroxy-7′,9-epoxy-8,8′-lignan], the “ER (efflux ratio, Papp(BL→AP)/Papp(AP→BL))” value is reported as 5.36; the “Papp (AP→BL)” value is given as 2.54 10^−6 cm/s; the “Papp (BL→AP)” value is listed as 13.61 10^−6 cm/s.

Turning to `O=c1cc(-c2ccc(O[C@@H]3O[C@H](CO)[C@@H](O)[C@H](O)[C@H]3O)cc2)oc2cc(O)cc(O)c12` [Apigenin-4′-O-glucoside], the “ER (efflux ratio, Papp(BL→AP)/Papp(AP→BL))” value is given as 5.76; the “Papp (AP→BL)” value is 1.45 10^−6 cm/s; the “Papp (BL→AP)” value is given as 8.35 10^−6 cm/s.

In the case of `O=c1cc(-c2ccc(O)cc2)oc2c(C3OCC(O)C(O)C3O)c(O)cc(O)c12` (centres unmarked) [Apigenin-8-C-arabinoside], the “ER (efflux ratio, Papp(BL→AP)/Papp(AP→BL))” value amounted to 6.04; the “Papp (AP→BL)” value is recorded as 1.85 10^−6 cm/s; the “Papp (BL→AP)” value was 11.17 10^−6 cm/s.

As for `O=C1C[C@@H](c2ccc(O)c(O)c2)Oc2cc(O[C@@H]3O[C@H](CO)[C@@H](O)[C@H](O)[C@H]3O)ccc21` [Butin-7-O-glucoside], the “ER (efflux ratio, Papp(BL→AP)/Papp(AP→BL))” value turned out to be 6.47; the “Papp (AP→BL)” value is reported as 1.01 10^−6 cm/s; the “Papp (BL→AP)” value is listed as 6.53 10^−6 cm/s.

For the compound `COc1cc(C(=O)[C@H]2CO[C@H](c3cc(OC)c(O)c(OC)c3)[C@H]2CO)cc(OC)c1O` [Ciwujiatone], the “ER (efflux ratio, Papp(BL→AP)/Papp(AP→BL))” value worked out at 5.34; the “Papp (AP→BL)” value is on record as 2.79 10^−6 cm/s; the “Papp (BL→AP)” value is recorded as 14.90 10^−6 cm/s.

For the compound `O=c1cc(-c2ccc(O)cc2)oc2cc(O[C@@H]3O[C@H](CO)[C@@H](O)[C@H](O)[C@H]3O)cc(O)c12` [Cosmosiin], the “ER (efflux ratio, Papp(BL→AP)/Papp(AP→BL))” value is reported as 4.60; the “Papp (AP→BL)” value is recorded as 2.15 10^−6 cm/s; the “Papp (BL→AP)” value is recorded as 9.88 10^−6 cm/s.

Take `COc1ccc(-c2cc(=O)c3c(O)cc(O[C@@H]4O[C@H](C(=O)O)[C@@H](O)[C@H](O)[C@H]4O)cc3o2)cc1O` [Diosmetin-7-O-glucuronide]: the “ER (efflux ratio, Papp(BL→AP)/Papp(AP→BL))” value was 0.16.

With `O=c1c(O)c(-c2ccccc2)oc2cc(O[C@@H]3O[C@H](CO)[C@@H](O)[C@H](O)[C@H]3O)cc(O)c12` [Galangin-7-O-glucoside], the “ER (efflux ratio, Papp(BL→AP)/Papp(AP→BL))” value came to 4.87; the “Papp (AP→BL)” value is 2.62 10^−6 cm/s; the “Papp (BL→AP)” value is recorded as 12.75 10^−6 cm/s.
